# Data as given in the RNAGym collection of RNA variant scans (doi:10.1073/pnas.2313332121).
# Variants at the background level are over-represented here.
# B1: TPR 5TU (parent)
# chain: GGAUCUUCUCGAUCUAACAAAAAAGACAAAUCUGCCACAAAGCUUGAGAGCAUCUUCGGAUGCAGAGGCGGCAGCCUUCGGUGGCGCGAUAGCGCCAACGUUCUCAACUAUGACACGCAAAACGCGUGCUCCGUUGAAUGGAGUUUAUCAUG
# Variants of: B1
# Assay: polymerase ribozyme fitness, log enrichment relative to wild type (log ratio); higher = more active; in vitro selection for triplet polymerase activity
# Procedure, shortened: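 For each subunit of a heterodimeric triplet polymerase ribozyme, a mutant library was built by PCR and transcribed, then taken through a single in vitro selection round in triplicate. Selection involved annealing to a biotinylated primer, the partner subunit and triplets, incubation frozen at −7 °C, gel excision of extended constructs, capture on streptavidin beads and RT-PCR. Genotypes were retained after Illumina sequencing of inputs and outputs only with ≥10 input reads and ≥1 read in each output. Fitness is defined as the logarithm of a genotype's enrichment relative to wild-type enrichment, using inverse-variance-weighted averages across replicates, with the logarithm taken to base 2.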
row,Variant,polymerase ribozyme fitness (log ratio)
1,GGAUCUUCUGGAUCUAACAAAAAAGACAAAUCUGCCACAAAGCUUGAGAGCAUCUUCGAAUGCAGAGGCGGCAGCCUUCGGUGGCGCGAUAGCGCCAACGUUCUCAACUAUGACACGCAAAACGCGUGCUCCGUUGAAUUGAGUUUAUCAUG,≤ -4.2
2,GGAUCUUCUGGAUCUAACAAAAAAGACAAAUCUGCCACAAAGCUUGAGAGCAUCUUCGCAUGCAGAGGCGGCAGCCUUCGGUGGCGCGAUUGCGCCAACGUUCUCAACUAUGACACGCAAAACGCGUGCUCCGUUGAAUGGAGUCUAUCAUG,≤ -4.2
3,GGAUCUUCUGGAUCUAACAAAAAAGACAAAUCUGCCACAAAGCUUGAGAGCAUCUUCGGAUGCAGAGGCGGCAGCCUUCGGUGGCGCGAUAGCACCAACGUUCUCAACUAUGACACGCAAAACGCGUGCUCCGUUGAAUGGAGUUUAUCAUG,-3.44
4,GGAUCUUCUGGAACUAACAAAAAAGACAAAUCUGCCACAAAGCUUGAGAGCAUCUUCGGAUGCAGAGGCGGCGGCCUUCGGUGUCGCGAUAGCGCCAAGGUUCUCAUCUAUGACACGCAAAACGCGUGCUCCGUUGAACGGAGUUUAUCAUG,≤ -4.2
5,GGAUCUUCUGGAACUAACAAAAAAGACAAAUCUGUCACACAGCUUGAGAGCAUCUUCGGAUGCAGAGGCGGCAGCCUUCGGUGUCGCGAUAGCGCCAACGUUCUCAACUAUGACACGCAAUGCGCGUGCUCCGUUGAAUGGAGUUUAUCAUG,≤ -4.2
6,GGAUCUUCUGGACCUAACAAAAAAGACAAAUCUGCCACAAAGCUUGAGAGCAUCUUCGGAUGCAGAGGCGGCAGCCUUCGGUGGGGCGAUAGCGCCAACGUUCUCAACGAUGACUCGCAAAACGCGUGCUCCGUUGAAUUGAGUUUAUCAUG,≤ -4.2
7,GGAUCUUCUGGAGCUAACAAAAAAGACAAAUCUGCCAAAAAGCUUGAGAGCAUCUUCGCAUGCAGAGGCGGCAGCCUUCGAUGGUGCGAUAGCGGCAACGUUCUCCACUAUGACACGCAAAACGCGUGCUCCGUUUAAUGGAGUUUAUCAUG,≤ -4.2
8,GGAUCUUCUGGAUCUAACAAAAAAGACAAAUCUGCCACAAAGCUUGAGAGCACCUUCGGAUGCAGAGGCGGCAGCCUUCGGUGGCGCGAUAGUGCCAACGUUCUCAGCUAUGACACGCAAAACGCGUGCUCCGUUGAAUGGAGUUUAUCAUG,≤ -4.2
9,GGAUCUUCUGGAUCUAACAAAAAAGACAAAUCUGCCACAAAGCUUGAGAGCAGAUUCGGAUGCAGAGGCGGCAGCCUUCGGUGGCUCGAUAGCGCCAACGUUCUCAACUAUGACACGCAAAACGCGUGCUCCGUUGAAUGGAGUUUAUCAUG,≤ -4.2
10,GGAUCUUCUGGAUCUAACAAAAAAGACAAAUCUGCCACAAAGCUUGAGAGCAUCUACGGAUGCAGAGGCGGCAGCCUUCGGUGGCGCGAUAGCGCGAACGUUCUCAAGUAUGACACGCAAAACGCGUGCUCCGUUGAAUAGAGUUUAUCAUG,≤ -4.2
11,GGAUCUUCUUGGUCUAACAAAAAAGACAAAUCUGCCACAAAGCUUGAGAGCAUUUUCGGAUGCAGAGGCGUCAGCCUUCGGUGGCGCGAUAGCACCAACGUUCUCAAAUUUGACACGGAAAACGCGUGCUCCGUUGAAUGGAGUUUAUCAUG,≤ -4.2
12,GGAUCUUCUUGAUCUCACAAAAAAGACAAAUCUGCCACCAAGCUUGAGAUCAUCUACGGAUGCAGACGCGGCAGCCUUCGGUGGCGCGAUAGCCCCAACGUUCUCAAUUAUGACACGCAAAACGCGUGCUCCGUUGAAUGGAGUUUAUCAUG,≤ -4.2
13,GGAUCUUCUUGAUCUGACAAAAAAGACAAAUCUGCCACAAAGCUUGAGAGCAUCUUCGGAUGCAGAGGCGGCAGCCUUCGGUGUCGCGAUAGCGCCAACGUUCUCAACUAUGACACGCAAAACGCGUGCUCCGUUGAAUUGAGUUUAUCAUG,≤ -4.2
14,GGAUCUUCUUGAUCUUACAAAAAAGACAAAUCUGCCACAAAGCUUGAGAGCAUCUUCGGAUGCAGAGGCGGCAGCCUUCGGUGGCGCGAUAGCGCCUACGUUCUCAACAAUGACACGCAAAACGCGUGCUCCGUUGGAUGGAGUUUAUCAUG,≤ -4.2
15,GGAUCUUCUUGAUCUACCAAAAAAGACAAAUCUGCCACAAAGCUUGAGAGCAUCUUUGGAUGCAGAGGCGGCAGCCUUCGGUGGCGCGAUAGCGCCAACGUUCUCAACUAUGACACGCAAAACGCGUGCUCCUUUGAAUGGAGUUUAUCAUG,≤ -4.2
16,GGAUCUUCUUGAUCUACCAAAAAAGACAAAUCUGCCACAAAGCUUGAGAGCAUCUUCGGAUGCAGAGGCGGCAGCUUUCGGUGGAGCGAUAGCGGUAACGUUCUCAACUAUGACACGCAAAACGCGUGCUCCUUUGUAUGGAGUUUAACAUG,≤ -4.2
17,GGAUCUUCUUGAUCUAGCACAAAAGACAAAUCUGCCACAAAACUUGAGAGCAUCUUCGGAUGCAGAGGCGGCAGCAUUAGGUGGCGCGAUAGCGCCAACGUUCUCAACUAUGACACGCAAAACGCGUGCUCCGUUGAAUGGAGUUUAUCAUG,≤ -4.2
18,GGAUCUUCUUGAUCUAGCAAAAAAGACAAAUCUGCCACAAAGCUUGAGAGCAUCUUCGGAUGCAGAGGCGGCAGCCAUCGGUUGCGCGAUAGCGCCACCGCUCUCUACUAGGACACGCAAAACGCGUGCUCCGUUGAAUGGAGUUUAUCAUG,≤ -4.2
19,GGAUCUUCUUGAUCUAUCAAAAAACACAAAUCUGCCACAAAGCUUGAGAGCAUCUUCGGAUGCAGAGGCGGCAGCCUUCGGUGGCGAGAUAGCGCCAACGUUCUCGAAUAUGACACGCAAAACGCGUGCUCCGUUGAAUGGAGUUUAUCAUG,≤ -4.2

row,Variant,polymerase ribozyme fitness (log ratio)
1,GGAUCUUCUUGAUCUAACCAAAUAGAAAAAUCUGACACAAAGCUUGAGAGCAUCUUCGGAUGCAGAGGCGGCAGCCUUCGGUGGCGCGAUAGCGCCUACGUUCUCAACUAUGACACGCAAAACGCGUGCUCAGUUAAAUGGCGUUUAUCAUG,≤ -4.2
2,GGAUCUUCUUGAUCUAACCAAAAAGACAAAUCUGCCACAAAGCUGGAGAGCAUCUUCGGAUGCAGAGGCGGGAGCCUUCGGUGGCGCGACAGCGCCAACGUUCUCAACUAUGACACGCAAAACGCGUGCUCCGUGGAAUGGAGUUUAUCAUG,≤ -4.2
3,GGAUCUUCUUGAUCUAACUAAAUAGACAAAUCUGCCACAAAGCUUGAGAGCAUCUUUCGAUGCAGAGGCGGCAGUCUGCGGUGGCGCGAUAGCGUCAACGUUCUUAACUAUGACACGCAAAACGCGUGCUCCGUUGAAUGGAGUUUAUCAUG,≤ -4.2
4,GGAUCUUCUUGAUCUAACAAAGAAGACAAAUCUGCCACAAAGCUUGAGAGCAUCUUCGGAUGCAGAGGCGGCAGCCUUCGGUGGCGGGAUAGCGCCAACGUUCUCAACUAUGACACGCAAAACGCGUGCUCCGUUGAAUGGAGUUUAUCAUG,≤ -4.2
5,GGAUCUUCUUGAUCUAACAAAUAAGACAAAUCUGACACAAAGCUUGAGAGCAACUUCCGAUGCAGAGGCGGCAGCCUUCAGUGGCGCGAUAGCGACAACGUGCUCAGCUAUGACACGCAAAACGCGUGCUCCGUUGAAUGGAGUUUAUCAUG,≤ -4.2
6,GGAUCUUCUUGAUCUAACAAAAUAGACAAAUCUGCCACAAAGCUUGAGAGCAUCUUCGGAUGCAGAGGCGGCAGCCUUCGGUGGCGCGAGAGCGCCAACGUUCUCAACUAUGACACGCAAAACGCGUGCUCCGUUGAAUGGAGUUUAUCAUG,≤ -4.2
7,GGAUCUUCUUGAUCUAACAAAAAGGAGAAAUCUGCCACAAAGCUUGAGAGCAUCUUCGGAUGCAGAGGCGGCAGCCUUCGGUGGCGCGAUAGCGCCAACGUUCUCAACUAUGACACGCAAAACGCGUGCUCCGUUGAAUGGUGUCUAUCAUG,≤ -4.2
8,GGAUCUUCUUGAUCUAACAAAAAAGGCAAAUCUGCCACAAAGCUUGAGAGCAUCUUCGGAUGCAGAGGCGGCAGCCUUCGGUGGAGCGAUAGCGCCAACGUUCUCAACUAUGACACGCAAAACGCGUGCUCCGUUGUAUGGAGUUUAUCAUG,≤ -4.2
9,GGAUCUUCUUGAUCUAACAAAAAAGGCAAAUCUGCCACAAAGCUUGAGAACAUCUUCGGAUGCAGAGGCGGCAGCCUUCGGUGGCGCGAUAGCGACAACGUUCUCAACUAUGACACGCAAAACGCGUGCUCCGUUGAAUGGAGUUUAUCAUG,≤ -4.2
10,GGAUCUUCUUGAUCUAACAAAAAAGUCAAAUCUGCCACCAAGCUUGAGAGCAUCUUCGGUUGCAGAGGCGGCAGCCUUCGGUGGCGCGAUAGCGCCAACGUUCUCAACUAUGCCACGCAAAACGCGUGCUCCGUUGAAUGGAUUUUAUCAUG,≤ -4.2
11,GGAUCUUCUUGAUCUAACAAAAAAGUCAAAUCUGUCACAAAGCUUGAGAGCAUUUUCGGCUGCAGAGGCGGCAGCCUUCGGUGGCGCGAUAGCGACAAUGUUGUCAACUAUGACACGCAAAACGCGUGCUCCGUUGAAUGGUGUUUAUCAUG,≤ -4.2
12,GGAUCUUCUUGAUCUAACAAAAAAGACUAAUCUGCCACAAAGCUUGAGAGCAUCUUCGGCUGCAGAGGCGGCAGCCUUCGGUGGCGAGAUAGCGCUAACGUUCUCAACUAUGACACGCAAAACGCGUGCUCCGUUGAAUGGAGUUUAUCAUG,≤ -4.2
13,GGAUCUUCUUGAUCUAACAAAAAAGACUAAUCUGCGACAAAGCUUGAGAGCAUCUUCGGAUGCAGAGGCGGCAGGCUUCGGUGGCGCGAUAGCGCCAACGUUCUCAACUUUGACACGCAAAACGCGUGCUUCGUUGAAUGGAGUUUAUCAUG,≤ -4.2
14,GGAUCUUCUUGAUCUAACAAAAAAGACAGAUCUGCCACAAAGCUUGAGAGCAUCUUCGAAUGCAGAGGCGGCAGCCUUCGAUGGCGCGAUAGCGCCGACGUUCUCAACUAUGACACGCAAAACGCGUGCUCCGUUGAAUGGAGUUUAUCAUG,≤ -4.2
15,GGAUCUUCUUGAUCUAACAAAAAAGACAGAUCUGCCACAAAGCUUGAGAGCAACUUCGGAUGCAGUGGCGGCAGCCUUUGGUGGCGCGAUAGCGCUAACGUUCUCAACUAUGACACGCAAAACGCGUGCUCCGUUGAAUGGAGUUUAUCAUG,≤ -4.2
16,GGAUCUUCUUGAUCUAACAAAAAAGACAUAUCUGCCACAUAGCUUGAGAGCAUCUUCGGAUGCAGAGGCGGCAGCCUUCGGUGGCGCGAUAGUGCCAACGUUCUCAACUAUGACACGCAAAACGCGUGCUCCGUUGAAUGUAGUUUAUCAUG,≤ -4.2
17,GGAUCUUCUUGAUCUAACAAAAAAGACAAUUCUGCCACAAAGCUUGAGCGCAUCUUCGGAUGCAGAGGCGGCAGCCUUCGGUGGCGUGGUAGCGGCAACGUUCCCAACUAUGACAUGCUAAACGCGUGCUCCGUUCAAUGGAGUUUAUCAUG,≤ -4.2
18,GGAUCUUCUUGAUCUAACAAAAAAGACAAAUCUGCCACCAAGCUUGAGAUCAUCUUCGGAUGCAGAGGCGGCAGCCUUCGGUGGCGAGAUAGCGUCUACGUUCUCAACUAUGACAAGCAAAACGCGUGCUCCGUUGAAUUGAGUUUAUCAUG,≤ -4.2
19,GGAUCUUCUUGAUCUAACAAAAAAGACAAAUCUGCCACGAAGCUUGAAAGCAUCUUCGGAUGCAGUGGCGGCAUGCUUCGGUGGCGCGAUAGCGCCAACGUUCUAAACUAUGACACGCAAAACGCGUGCUCCGUUGAAUGGAGUUUAUCAUG,≤ -4.2
